Experimental data reported in paper PMC4336329 (PLoS ONE, 2015).
The whole screen tested about 310,000 compounds, of which about 14,000 (4.5%) showed an effect of 50% or more. Effects have a minus sign here. Some of the results follow.

Biological target: human ether-à-go-go-related gene (hERG) potassium channel (human, UniProt Q12809)
Assay: primary screen, population patch clamp on CHO cells stably expressing hERG
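Also: peak tail current of the secondary pulse compared with the same well before compound.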

human ether-à-go-go-related gene (hERG) potassium channel, sequence (Q12809 whole entry, looked up): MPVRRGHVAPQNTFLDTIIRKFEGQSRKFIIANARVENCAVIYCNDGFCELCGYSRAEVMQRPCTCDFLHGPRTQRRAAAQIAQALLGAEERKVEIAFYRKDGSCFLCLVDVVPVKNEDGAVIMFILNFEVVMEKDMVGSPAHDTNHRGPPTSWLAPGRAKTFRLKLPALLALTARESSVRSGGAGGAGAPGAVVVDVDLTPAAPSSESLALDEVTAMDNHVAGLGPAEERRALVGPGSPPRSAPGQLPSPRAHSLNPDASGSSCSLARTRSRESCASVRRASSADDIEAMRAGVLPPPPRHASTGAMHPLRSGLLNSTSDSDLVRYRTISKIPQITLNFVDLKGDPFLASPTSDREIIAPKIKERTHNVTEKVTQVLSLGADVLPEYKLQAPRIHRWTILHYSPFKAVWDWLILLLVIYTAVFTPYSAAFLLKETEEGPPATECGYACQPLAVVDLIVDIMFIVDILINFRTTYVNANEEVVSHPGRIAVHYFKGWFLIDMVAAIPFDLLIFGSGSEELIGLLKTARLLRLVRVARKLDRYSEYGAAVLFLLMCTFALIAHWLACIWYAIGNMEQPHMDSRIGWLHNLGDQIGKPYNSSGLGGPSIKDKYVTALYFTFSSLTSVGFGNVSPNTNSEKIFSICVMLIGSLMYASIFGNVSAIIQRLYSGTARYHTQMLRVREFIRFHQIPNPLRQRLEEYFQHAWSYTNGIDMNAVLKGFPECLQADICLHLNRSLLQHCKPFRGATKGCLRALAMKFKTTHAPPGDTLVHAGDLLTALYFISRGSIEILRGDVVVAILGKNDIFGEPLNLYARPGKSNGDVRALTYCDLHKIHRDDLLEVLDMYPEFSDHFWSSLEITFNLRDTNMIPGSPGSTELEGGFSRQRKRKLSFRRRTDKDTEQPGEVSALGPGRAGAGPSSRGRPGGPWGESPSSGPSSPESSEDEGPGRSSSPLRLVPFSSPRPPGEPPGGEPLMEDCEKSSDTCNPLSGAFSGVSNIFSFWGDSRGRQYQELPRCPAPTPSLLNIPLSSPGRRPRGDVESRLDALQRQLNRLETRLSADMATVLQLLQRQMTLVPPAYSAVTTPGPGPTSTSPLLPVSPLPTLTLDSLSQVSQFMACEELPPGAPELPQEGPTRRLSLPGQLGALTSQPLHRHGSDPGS

Row | SMILES | hERG current change (%, negative = inhibition) at 10uM [%]
1 | Cc1nc(Cl)cc(N/N=C/c2ccc(O)cc2O)n1 | -2.09
2 | COc1ccc2nc(Cl)cc(Cl)c2c1 | 20.9
3 | CCS(=O)(=O)CCSc1nc(C)cc(C)n1 | 6.45
4 | Cc1ccc(N2C(=O)CCC(C(=O)O)C2c2cccs2)cc1 (stereo not shown) | 34
5 | CCOC(=O)N1CCC(N2CCN(Cc3ccccc3)C(CCO)C2)CC1 (stereo not shown) | -9.9
6 | O=[N+]([O-])c1cc(S(=O)(=O)N2CCCC2)ccc1N/N=C/c1ccncc1 | -17.2
7 | CCCn1c2ccccc2c2nnc(SCC(=O)Nc3cc(C)on3)nc21 | -0.11
8 | Cc1c(C(=O)OCC(=O)N2CCCCC2C)oc2ccccc12 (stereo not shown) | 14.6
9 | O=C(NCCCc1nc2ccccc2[nH]1)c1cccs1 | -5.12
10 | COc1ccc(NC(C)=O)cc1NC(=O)c1ccc2ccccc2c1 | -25.5
11 | O=C1CSC(c2cccc(F)c2)N1c1ccccc1 (stereo not shown) | 12.8
12 | CN(C)CCNC(=O)COc1ccc(C23CC4CC(CC(C4)C2)C3)cc1.Cl | -18.9
13 | Cc1cc(C)n(CC(O)COc2ccccc2C)n1 (stereo not shown) | -4.84
14 | CCOC(=O)c1cc(=O)n2[nH]c(-c3ccc(C)cc3)cc2n1 | 12.1
15 | CCN(CC)C(=O)N1CCc2ccccc2C1CN1C(=O)c2ccccc2C1=O (stereo not shown) | -15.3
16 | Cc1ccc(-c2nc3cccnc3s2)cc1NS(=O)(=O)c1ccc2c(c1)CCCC2 | 5.81
17 | COc1ccc(Br)cc1/C=C/C(=O)NC(=S)Nc1ccc(Cl)c(C(=O)O)c1 | 22.8
18 | CSc1nc(C)c(CCOC(=O)c2cccc(Cl)c2)c(=O)[nH]1 | 2.68
19 | Cc1cc(C)n(CCc2nc(-c3ccc(C)o3)cs2)n1 | 0.436
20 | COc1ccccc1N1CCN(C(=O)c2cc3cc(F)ccc3[nH]2)CC1 | 15.8
21 | CN(C)c1ccc(-c2noc(C3CCN(C(=O)Nc4ccc(Cl)cc4)CC3)n2)cc1 | -0.329
22 | O=C(NCCCN1CCCC1=O)c1cc(=O)c2ccccc2o1 | 5.23
23 | O=C(COC(=O)c1ccccc1C(=O)c1ccccc1)NCCc1ccc(Cl)cc1Cl | -31.9
24 | O=C(COC(=O)C1CC2CCCC(C1)C2=O)Nc1ccc(Cl)cn1 (stereo not shown) | -7.38
25 | CC#CC(=O)N1CCC(CCc2ccccc2)(C(=O)OCC)CC1 | -61.4
